Columns and labels:
[1] = target: T1, nanodisc embedded human CACNG1 expressed with a C-terminal PADRE-Flag-His tag (human, UniProt Q06432 1-222); assay: SPR, anti-His-captured nanodisc, 25 C
T1 construct: Captured on an anti-His Biacore surface; also called human CACNG1 nanodisc; CACNG1 nanodisc; not shown: C-terminal tag
Procedure: Equilibrium dissociation constants (KD values) for nanodisc embedded human CACNG1 expressed with a C-terminal […] tag (human CACNG1 nanodisc; concentration 0.82 mg/ml) binding to purified anti-CACNG1 antibodies were determined using a real-time surface plasmon resonance biosensor technology with a Biacore T200 instrument. The CM5 Biacore sensor surface was derivatized by amine coupling with a monoclonal mouse anti-His antibody (Cytiva; Marlborough, MA). All Biacore binding studies were performed in a buffer composed of 0.01M HEPES, 0.15M NaCl, 1 mM CaCl₂, 0.5 mM MgCl₂, pH 7.4 (HBS-N++ running buffer). Different concentrations of anti-CACNG1 antibodies (ranging from 300 nM to 12 nM in 5-fold serial dilutions) prepared in HBS-N++ running buffer were injected over the captured human CACNG1 nanodisc at a flow rate of 30 μL/minute. Antibody association was monitored for 2 minutes while dissociation was monitored in HBS-N++ running buffer for 5 minutes. At the end of each cycle, the human CACNG1 nanodisc capture surface was regenerated using three 10 second injections of 10 mM Gly pH1.5. All binding kinetics experiments were performed at 25° C.
The specific SPR-Biacore sensorgrams were obtained by a double referencing procedure. The double referencing was performed by first subtracting the signal of each injection over a reference surface (anti-His) from the signal over the experimental surface (anti-His captured human CACNG1 nanodisc) thereby removing contributions from refractive index changes. In addition, running buffer injections were performed to allow subtraction of the signal changes resulting from the dissociation of captured antibodies from the coupled anti-His surface. Kinetic association (kₐ) and dissociation ([…]) rate constants were determined by fitting the real-time sensorgrams to a 1:1 binding model using Scrubber v2.0c curve fitting software. Binding dissociation equilibrium constants (KD) and dissociative half-lives (t %) were calculated from the kinetic rate constants as: […]

[2] = target: T2, human CACNG1 expressed on cells (human, UniProt Q06432 1-222); assay: imaging cell binding, HuSKM myotubes
T2 construct: also called hCACNG1; HEK293/hCACNG1
Procedure: (§1) HuSKM were seeded in collagen-coated 96-well plates (Greiner Bio-One #655956) at 8,500 cells/well and grown for 24 hours. The growth media was changed to MyoTonic Differentiation Media (Cook Myosite Cat #MD-5555) and replaced every 2 days. Myotubes were assayed after 6 days of differentiation. C2C12 mouse myoblasts were maintained in DMEM with 10% FBS and 1% penicillin-streptomycin supplement and grown in a 37° C. incubator with 5% CO₂. C2C12 cells were seeded in collagen-coated 96-well plates (Greiner Bio-One #655956) at 10,000 cells/well for the cell binding assay and 5,000 cells/well for the cell killing assay. After 24 hours, growth media was replaced with differentiation media (DMEM with 2% horse serum) and placed in a 37° C. incubator with 7.5% CO₂. C2C12 myotubes were assayed after 3 days of differentiation. HEK293/hCACNG1, HEK293/mCACNG1, and HEK293 cells were seeded at 10,000 cells (cell binding assay) or 2,000 (cell killing assay) per well in 96-well black collagen coated plates (Greiner Bio-One, cat #655956) in complete growth media and grown overnight at 37° C. in 5% CO₂.
(§2) Relative binding of anti-CACNG1 antibodies was assessed across the entire panel of cell lines via imaging analysis. […] Images were acquired with a 10× objective on the Opera Phenix (Perkin Elmer) and relative fluorescence units (RFU) was determined using Harmony software (Perkin Elmer).

[3] = target: T2, human CACNG1 expressed on cells; assay: imaging cell binding, HEK293/hCACNG1
Procedure: as §1, §2

[4] = target: T2, human CACNG1 expressed on cells; assay: cell-based or functional assay
[5] = target: T3, mouse CACNG1 expressed on cells (mouse, UniProt O70578 1-223); assay: cell-based or functional assay
T3 sequence (looked up): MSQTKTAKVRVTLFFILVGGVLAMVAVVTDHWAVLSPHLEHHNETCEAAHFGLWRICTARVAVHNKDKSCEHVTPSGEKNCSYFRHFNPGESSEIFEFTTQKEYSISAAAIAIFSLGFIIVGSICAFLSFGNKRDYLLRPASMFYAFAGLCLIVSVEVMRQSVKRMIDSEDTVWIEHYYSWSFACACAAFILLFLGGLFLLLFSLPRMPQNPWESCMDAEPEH

[6] = target: T3, mouse CACNG1 expressed on cells; assay: imaging cell binding, C2C12 mouse myotubes
Procedure: as §1, §2

[7] = target: T3, mouse CACNG1 expressed on cells; assay: imaging cell binding, HEK293/mCACNG1
Procedure: as §1, §2

[8] = target: T2, human CACNG1 expressed on cells; assay: cell-based or functional assay; remark: listed apart in the source
[9] = target: T2, human CACNG1 expressed on cells; assay: cell-based or functional assay; remark: listed apart in the source

T2 sequence (Q06432 whole entry): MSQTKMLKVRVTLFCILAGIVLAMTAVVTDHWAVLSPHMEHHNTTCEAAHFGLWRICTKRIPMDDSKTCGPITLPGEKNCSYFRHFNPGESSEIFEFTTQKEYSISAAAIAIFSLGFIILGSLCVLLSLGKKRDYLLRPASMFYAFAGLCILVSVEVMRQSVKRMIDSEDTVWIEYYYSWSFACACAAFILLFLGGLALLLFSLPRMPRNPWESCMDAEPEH

B1: REGN10783 (antibody, human IgG4 S228P, kappa)
heavy: QVQLVESGGGVVQPGTSLRLSCAASGFTFSSYGMHWVRQAPGKGLEWVAVIWIDGSNKYYADSVKGRFTISRDNSKNTLYLQMNSLRAEDTAVYYCARRGGIVVAAPFDYWGQGTLVTVSSASTKGPSVFPLAPCSRSTSESTAALGCLVKDYFPEPVTVSWNSGALTSGVHTFPAVLQSSGLYSLSSVVTVPSSSLGTKTYTCNVDHKPSNTKVDKRV[human IgG4 Fc with S228P (EU numbers) omitted here]
light: [about 100 residues omitted here][about 120 residues omitted here]
notes: hIgG4
- Kd [1]: 93.5 nM
- koff [1]: 0.0127 s⁻¹
- kon [1]: 136000 M⁻¹ s⁻¹
- mAb bound at 300 nM [1]: 9 RU
- t1/2 [1]: 54 s
- EC50 [2]: 2.9 nM
- S/N [2]: 734 fold
- EC50 [3]: 8.5 nM
- S/N [3]: 230 fold
- % KILL, indirect cell killing, HEK293/hCACNG1 [4]: 95.4%
- % KILL, indirect cell killing, HuSKM [4]: 99.3%
- EC50/IC50, indirect cell killing, HEK293/hCACNG1 [4]: 0.00178 nM
- EC50/IC50, indirect cell killing, HuSKM [4]: 0.216 nM
- % KILL, indirect cell killing, C2C12 [5]: 0%
- % KILL, indirect cell killing, HEK293/mCACNG1 [5]: 23.7%
- EC50/IC50, indirect cell killing, C2C12 [5]: > 10 nM
- EC50/IC50, indirect cell killing, HEK293/mCACNG1 [5]: > 1 nM
- S/N [6]: 1.1 fold
- binding result [6]: no binding (tested: 100 nM highest tested)
- S/N [7]: 1.7 fold

B2: REGN14647-M3004 (antibody, human IgG1, kappa)
heavy chain: QVQLVESGGGVVQPGRSLRLSCTASGITFRNYGMHWVRQAPGKGLEWVAVMWYDGSNKYYADSVKGRFTISGDNSKVYLQMNSLRAEDTAVYYCARRGTIRTAAPFDYWGQGTLVTVSS[human IgG1 constant region with changes omitted here]
light chain: [about 100 residues omitted here][about 120 residues omitted here]
modifications: DHT linker-payload M3004 conjugated, DAR about 4
- EC50 of androgen receptor luciferase reporter activation (RLU) by the DHT conjugate REGN14647-M3004 in hCACNG1.AR.Luc LNCaP cells, 24 hours; concentration adjusted for DAR [8]: 6.75 nM
- EC50 of androgen receptor luciferase reporter activation (RLU) by the DHT conjugate REGN14647-M3004 in hCACNG1.AR.Luc LNCaP cells, 72 hours; concentration adjusted for DAR [9]: 7.36 nM
